Measured values as given in the supplement of paper PMC8728848.
The list shows a part of the results.

What was measured:
Assay in all cases: glycan array binding signal (z-score within array); higher = stronger binding
Details in all cases: glycan notation: IUPAC condensed, linker removed
[1] = molecular target: GlcNAc(b1-3)Gal(b1-4)GlcNAc(b1-3)Gal(b1-4)GlcNAc(b1-3)GalNAc
Outline: (§1)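 Glycan array data were curated from 3228 arrays in the Consortium for Functional Glycomics database and kept only where the protein sequence was available. Glycan names were converted to IUPAC-condensed notation, and columns mapping to the same glycan were averaged. The binding signal is a within-array Z-score, averaged across arrays of the same protein sequence at different concentrations or buffers and across linkers. Negative Z-scores can be read as non-binding.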

[2] = molecular target: GlcNAc(b1-3)Gal(b1-4)GlcNAc(b1-3)GalNAc
Outline: as §1

[3] = molecular target: GlcNAc(b1-3)Gal(b1-4)GlcNAc(b1-3)[GlcNAc(b1-3)Gal(b1-4)GlcNAc(b1-3)]GalNAc
Outline: as §1

[4] = molecular target: GlcNAc(b1-3)Gal(b1-4)GlcNAc(b1-6)[Gal(b1-3)]GalNAc
Outline: as §1

[5] = molecular target: GlcNAc(b1-3)Gal(b1-4)GlcNAc(b1-6)[GlcNAc(b1-3)Gal(b1-3)]GalNAc
Outline: as §1

[6] = molecular target: GlcNAc(b1-3)Gal(b1-4)GlcNAc(b1-6)[GlcNAc(b1-3)]Gal(b1-4)GlcNAc
Outline: as §1

[7] = molecular target: GlcNAc(b1-3)GalNAc
Outline: as §1

[8] = molecular target: GlcNAc(b1-3)Man
Outline: as §1

[9] = molecular target: GlcNAc(b1-3)[GlcNAc(b1-4)][GlcNAc(b1-6)]GlcNAc
Outline: as §1

[10] = molecular target: GlcNAc(b1-3)[GlcNAc(b1-6)]Gal(b1-4)GlcNAc
Outline: as §1

[11] = molecular target: GlcNAc(b1-3)[GlcNAc(b1-6)]GalNAc
Outline: as §1

[12] = molecular target: GlcNAc(b1-4)Gal(b1-4)GlcNAc
Outline: as §1

[13] = molecular target: GlcNAc(b1-4)GlcNAc
Outline: as §1

[14] = molecular target: GlcNAc(b1-4)GlcNAc(b1-4)GlcNAc
Outline: as §1

[15] = molecular target: GlcNAc(b1-4)GlcNAc(b1-4)GlcNAc(b1-4)GlcNAc(b1-4)GlcNAc
Outline: as §1

[16] = molecular target: GlcNAc(b1-4)GlcNAc(b1-4)GlcNAc(b1-4)GlcNAc(b1-4)GlcNAc(b1-4)GlcNAc
Outline: as §1

[17] = molecular target: GlcNAc(b1-4)[GlcNAc(b1-6)]GalNAc
Outline: as §1

[18] = molecular target: GlcNAc(b1-6)Gal(b1-4)GlcNAc
Outline: as §1

[19] = molecular target: GlcNAc(b1-6)GalNAc
Outline: as §1

[20] = molecular target: GlcNAc6S(b1-3)Gal(b1-4)GlcNAc
Outline: as §1

[21] = molecular target: Kdn(a2-3)Gal(b1-3)GalNAc
Outline: as §1

[22] = molecular target: Kdn(a2-3)Gal(b1-3)GlcNAc
Outline: as §1

[23] = molecular target: Kdn(a2-3)Gal(b1-4)Glc
Outline: as §1

[24] = molecular target: Kdn(a2-3)Gal(b1-4)GlcNAc
Outline: as §1

[25] = molecular target: Kdn(a2-3)Gal(b1-4)[Fuc(a1-3)]GlcNAc
Outline: as §1

[26] = molecular target: Kdn(a2-6)Gal(b1-4)GlcNAc
Outline: as §1

[27] = molecular target: Man(a1-2)Man(a1-2)Man(a1-3)Man
Outline: as §1

[28] = molecular target: Man(a1-2)Man(a1-2)Man(a1-6)[Man(a1-3)]Man
Outline: as §1

[29] = molecular target: Man(a1-2)Man(a1-3)Man
Outline: as §1

[30] = molecular target: Man(a1-2)Man(a1-3)[Man(a1-2)Man(a1-6)]Man
Outline: as §1

[31] = molecular target: Man(a1-2)Man(a1-3)[Man(a1-2)Man(a1-6)]Man(a1-6)[Man(a1-2)Man(a1-2)Man(a1-3)]Man
Outline: as §1

[32] = molecular target: Man(a1-2)Man(a1-3)[Man(a1-2)Man(a1-6)]Man(a1-6)[Man(a1-2)Man(a1-2)Man(a1-3)]Man(b1-4)GlcNAc(b1-4)GlcNAc
Outline: as §1

[33] = molecular target: Man(a1-2)Man(a1-3)[Man(a1-6)]Man(a1-6)[Man(a1-2)Man(a1-3)]Man(b1-4)GlcNAc(b1-4)GlcNAc
Outline: as §1

[34] = molecular target: Man(a1-2)Man(a1-6)[Man(a1-3)]Man(a1-6)[Man(a1-2)Man(a1-2)Man(a1-3)]Man
Outline: as §1

[35] = molecular target: Man(a1-2)Man(a1-6)[Man(a1-3)]Man(a1-6)[Man(a1-2)Man(a1-2)Man(a1-3)]Man(b1-4)GlcNAc(b1-4)GlcNAc
Outline: as §1

[36] = molecular target: Man(a1-3)[Man(a1-6)]Man
Outline: as §1

[37] = molecular target: Man(a1-3)[Man(a1-6)]Man(a1-6)[Man(a1-2)Man(a1-3)]Man(b1-4)GlcNAc(b1-4)GlcNAc
Outline: as §1

[38] = molecular target: Man(a1-3)[Man(a1-6)]Man(a1-6)[Man(a1-3)]Man
Outline: as §1

[39] = molecular target: Man(a1-3)[Man(a1-6)]Man(a1-6)[Man(a1-3)]Man(b1-4)GlcNAc(b1-4)GlcNAc
Outline: as §1

[40] = molecular target: Man(a1-3)[Man(a1-6)]Man(b1-4)GlcNAc(b1-4)GlcNAc
Outline: as §1

[41] = molecular target: Man(a1-3)[Man(a1-6)]Man(b1-4)GlcNAc(b1-4)[Fuc(a1-6)]GlcNAc
Outline: as §1

[42] = molecular target: Man(a1-6)Man
Outline: as §1

[43] = molecular target: Man(b1-4)GlcNAc
Outline: as §1

[44] = molecular target: MurNAc(b1-4)GlcNAc
Outline: as §1

[45] = molecular target: Neu5Ac(a2-3)Gal
Outline: as §1

B1: PfulAvr4 (Pseudocercospora fuligena) (protein)
chain: HHHHHHDYKDDDDKTYVQDKTPAFVCPAADIKTTKCLGPKDCLYPSPKTCNGYIQCSPADDSYLTGIIHEMPCPSGLLWNDNKKWCDWPENTTCGLVKSAGATEVDATKQGPTPGKYHG
In the case of B1, the “glycan array binding signal (z-score)” value [1] is reported as -0.095, the “glycan array binding signal (z-score)” value [2] is reported as -0.115 and the “glycan array binding signal (z-score)” value [3] is reported as -0.137. For the same binder, the “glycan array binding signal (z-score)” value [4] was -0.194, the “glycan array binding signal (z-score)” value [5] was -0.146 and the “glycan array binding signal (z-score)” value [6] was -0.212. For the same binder, the “glycan array binding signal (z-score)” value [7] was -0.085, the “glycan array binding signal (z-score)” value [8] was 0.804 and the “glycan array binding signal (z-score)” value [9] was -0.124. For the same binder, the “glycan array binding signal (z-score)” value [10] was 0.043, the “glycan array binding signal (z-score)” value [11] was -0.14 and the “glycan array binding signal (z-score)” value [12] was -0.021. The “glycan array binding signal (z-score)” value [13] was 0.191, the “glycan array binding signal (z-score)” value [14] was -0.107 and the “glycan array binding signal (z-score)” value [15] was 0.556. The “glycan array binding signal (z-score)” value [16] was 23.3, the “glycan array binding signal (z-score)” value [17] was -0.224 and the “glycan array binding signal (z-score)” value [18] was -0.108. For the same binder, the “glycan array binding signal (z-score)” value [19] was 0.015, the “glycan array binding signal (z-score)” value [20] was -0.066 and the “glycan array binding signal (z-score)” value [21] was -0.171. For the same binder, the “glycan array binding signal (z-score)” value [22] was -0.13, the “glycan array binding signal (z-score)” value [23] was 0.189 and the “glycan array binding signal (z-score)” value [24] was -0.115. For the same binder, the “glycan array binding signal (z-score)” value [25] was -0.025, the “glycan array binding signal (z-score)” value [26] was 0.004 and the “glycan array binding signal (z-score)” value [27] was -0.121. The “glycan array binding signal (z-score)” value [28] was -0.085, the “glycan array binding signal (z-score)” value [29] was -0.106 and the “glycan array binding signal (z-score)” value [30] was -0.132. For the same binder, the “glycan array binding signal (z-score)” value [31] was -0.013, the “glycan array binding signal (z-score)” value [32] was -0.117 and the “glycan array binding signal (z-score)” value [33] was -0.058. For the same binder, the “glycan array binding signal (z-score)” value [34] was -0.063, the “glycan array binding signal (z-score)” value [35] was -0.003 and the “glycan array binding signal (z-score)” value [36] was -0.079. For the same binder, the “glycan array binding signal (z-score)” value [37] was 0.011, the “glycan array binding signal (z-score)” value [38] was -0.076 and the “glycan array binding signal (z-score)” value [39] was -0.097. For the same binder, the “glycan array binding signal (z-score)” value [40] was -0.092, the “glycan array binding signal (z-score)” value [41] was -0.095 and the “glycan array binding signal (z-score)” value [42] was -0.118. The “glycan array binding signal (z-score)” value [43] was -0.045, the “glycan array binding signal (z-score)” value [44] was 0.035 and the “glycan array binding signal (z-score)” value [45] was -0.101.
